Values marked as one replicate rest on one cluster of the flow cell; about a third of the high ones do not repeat.
The sequences below were run on ATP (assay: switch fluorescence ratio, 500 uM ATP over buffer (Cy3 cluster intensity, sum of 5 cycles each) (fold (ratio)); higher = stronger signal-on switching upon ATP binding; sequences stand for … in TCGTCGGCAGCGTCAGATGTGTATAAGAGACAGTTTTTTTTTTTTTTTTTTTTTTTTT…TC). Details: aptamer strand: ATP DNA aptamer (quencher-CACCTGGGGGAGTATTGCGGAGGAAGG + anchor), 100 nM annealed; ATP concentration: 500 uM; one replicate.
In short: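 Cy3-labelled switching-strand clusters on a modified Illumina MiSeq flow-cell were annealed to 100 nM quencher-labelled ATP aptamer and imaged first in selection buffer, then after 15 min with 500 uM ATP at 22 °C. NaOH stripping and re-annealing separated each of five buffer/ATP cycles, and clusters outside 100-1000 RFU were excluded. The fluorescence ratio sums target-cycle Cy3 intensity over buffer-cycle Cy3 intensity per cluster and averages it per switch-domain sequence.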
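Further: ATP exposure 15 min at 22 °C before imaging.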

Sequence | switch fluorescence ratio
ACGTTTCCCT | 1.03
ACGTTTGTAC | 1.21
ACTAACGCTT | 1.26
ACTAACGGTT | 1.33
ACTAAGTGAG | 1.01
ACTAATACCG | 1
ACTAATATGG | 1.12
ACTAATCGCC | 1.02
ACTAATGATA | 1.05
ACTAATTCCG | 1.01
ACTAATTCTT | 1.01
ACTACGAGTC | 1.05
ACTACGCGCC | 3.74
ACTAGAAGAG | 0.99
ACTAGACCGC | 1.19
ACTAGACTCG | 0.992
ACTAGATAAA | 1.02
ACTAGCATTG | 1.05
ACTAGGAGGT | 1.05
ACTAGGCTGC | 1.03
ACTAGGGTCA | 0.96
ACTAGGTACT | 1.05
ACTAGGTGGT | 1.08
ACTAGGTTCC | 1.16
ACTAGGTTTG | 1.07

Sequence | switch fluorescence ratio
ACTATAGGCG | 0.991
ACTATATCAG | 1.08
ACTATATGCG | 1.06
ACTATCGGTA | 1.05
ACTATGCGAA | 1.13
ACTATGGAAG | 0.975
ACTATTAATG | 1.01
ACTATTGTCG | 0.992
ACTCAACAGC | 1.26
ACTCAACTGG | 1.34
ACTCAAGGTC | 1.06
ACTCAATA | 3.56
ACTCAATACT | 2.35
ACTCAGATCT | 1.07
ACTCATTAGC | 1.02
ACTCATTGGT | 1.01
ACTCCAGGGG | 1.12
ACTCCATTG | 1.01
ACTCCCCCGG | 3.39
ACTCCGTTGT | 3.24
ACTCCTCGTG | 1.84
ACTCGAACGA | 1.07
ACTCGACTT | 1.12
ACTCGAGTAT | 0.976
ACTCGATGGG | 1

Sequence | switch fluorescence ratio
ACTCGCGCTG | 1.2
ACTCGGAGCA | 1.67
ACTCGGATTC | 1.05
ACTCGGCTTA | 1.3
ACTCGTTTGC | 1.04
ACTCTATGAG | 0.93
ACTCTATTAA | 1.02
ACTCTCAGGA | 1.1
ACTCTCCCCT | 1.15
ACTCTCGTTG | 1.03
ACTCTGAGGG | 1.07
ACTCTGATA | 1.05
ACTCTTCCGC | 2.22
ACTCTTCTCC | 2.02
ACTGAAGGGA | 1.05
ACTGACCGCG | 1.01
ACTGACGTGT | 1.07
ACTGAGAG | 1.01
ACTGAGCGGT | 1.01
ACTGAGTCA | 1.04
ACTGATCTGC | 1.06
ACTGATGGAT | 1.02
ACTGCATGTC | 1.2
ACTGCATTGA | 1.08
ACTGCATTTT | 1.04

Sequence | switch fluorescence ratio
ACTGCCTTGG | 1.01
ACTGCGAGGG | 1.03
ACTGCGATTG | 1.08
ACTGCGCTTC | 3.02
ACTGCGTCCG | 1.18
ACTGCTCGGA | 1.02
ACTGCTGGAG | 0.993
ACTGCTGGGC | 0.989
ACTGGAGTGA | 0.992
ACTGGCATTA | 1.07
ACTGGCTATC | 1.07
ACTGGGACTT | 1.09
ACTGGTAATC | 1.05
ACTGGTACG | 1.13
ACTGGTACT | 1.19
ACTGTAATTA | 1.1
ACTGTACGTC | 1.45
ACTGTAGTTA | 1.12
ACTGTGACCG | 1.04
ACTGTGGATT | 0.987
ACTGTGTCGG | 1
ACTGTTACCC | 1.38
ACTGTTGCCG | 1.09
ACTGTTTCAT | 0.986
ACTTAAAGGT | 1.05

— the supplement of paper PMC10126150
